# Source: PMC7819943, “Rice protein-binding microarrays: a tool to detect cis-acting elements near promoter regions in rice”
# The other results are listed elsewhere or left out.
# Molecular target: T1, OsWOX13 (Oryza sativa, UniProt Q5QMM3 1-267)
# T1 sequence: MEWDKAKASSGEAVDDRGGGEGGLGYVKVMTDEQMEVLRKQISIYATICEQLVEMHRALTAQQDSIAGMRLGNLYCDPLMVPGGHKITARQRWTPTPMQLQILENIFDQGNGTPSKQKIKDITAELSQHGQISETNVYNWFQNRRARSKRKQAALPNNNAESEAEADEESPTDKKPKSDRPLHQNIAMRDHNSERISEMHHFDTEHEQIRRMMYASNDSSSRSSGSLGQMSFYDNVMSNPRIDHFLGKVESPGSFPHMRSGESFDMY
# Assay: protein-binding microarray (RPBM); PBS, 2% BSA, 51.3 ng/ul salmon testes DNA, 50 uM zinc acetate, 200 nM TF, 25 C, 1 h; high values mean tight binding
# Details: protein: recombinant; tags: N-terminal polyhistidine and DsRed monomer fusion (pET32a); label: CyDye5-dUTP incorporated in the synthesized complementary strand; 3' TTTTT single-stranded linker to array surface; dsDNA, one strand shown
# In short: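 Transcription factors were made in E. coli BL21-CodonPlus as N-terminal fusions to a polyhistidine tag and DsRed, then purified on Ni–NTA. After primer extension with Cy5-dUTP and blocking with 2% BSA, a custom Agilent array was exposed for 1 h at 25 °C to 200 nM protein in PBS, 2% BSA, salmon testes DNA and 50 µM zinc acetate. Washed arrays were scanned on an Axon 4000B, and the binding signal is per-feature fluorescence intensity in arbitrary units.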
row,Sequence,binding signal
1,CAAAATTACATGGCTTGTAATGCAACAGCGTTGAGTTTGCCGGAGTCACCTAGTGCAG,4940 fluorescence intensity (a.u.)
2,TGATAAATTTGGTGTTAAATCTGTAGTTTTGCGATACAACCGGAGTCACCTAGTGCAG,6500 fluorescence intensity (a.u.)
3,AGTATTTAATTGGATATAGGTTCATTGTACTAACTAATAACGGAGTCACCTAGTGCAG,10800 fluorescence intensity (a.u.)
4,CCTTTTAATAACATTATCAATTTCATGATATACTGAGCACCGGAGTCACCTAGTGCAG,7630 fluorescence intensity (a.u.)
5,AAATTTTACCAATTACAGTATTACTTAGTAGGGCAAGTTTCGGAGTCACCTAGTGCAG,3420 fluorescence intensity (a.u.)
6,GCTTAGGCATGGTGATTAACTGATTGAAATGACCAGTGTTCGGAGTCACCTAGTGCAG,29700 fluorescence intensity (a.u.)
7,CAGGCTTCCAGCCCAATTAATTAATTAGGAGTAGGATATGCGGAGTCACCTAGTGCAG,6320 fluorescence intensity (a.u.)
8,CTATGTTCAATCTATTATTATATTATGGTGAACTTGTTCACGGAGTCACCTAGTGCAG,5130 fluorescence intensity (a.u.)
9,TCTCGTAAATTAGCTTAGAGATTATGAAATGGGTTTTATCCGGAGTCACCTAGTGCAG,8370 fluorescence intensity (a.u.)
10,TTTATAATGAAATTTCAACCCCTTTACCTTTTGTTTGTTTCGGAGTCACCTAGTGCAG,4890 fluorescence intensity (a.u.)
11,CCTAATTAATATTAAACCACCAAATTAAATCCACACCAAACGGAGTCACCTAGTGCAG,33600 fluorescence intensity (a.u.)
12,AATGATTTCAACTGAAAAGGTCATCAACATCAAAGTTGTACGGAGTCACCTAGTGCAG,5720 fluorescence intensity (a.u.)
13,TAAAACAACAAATTTAATTGTAAATTACACGTTCAACTTTCGGAGTCACCTAGTGCAG,10800 fluorescence intensity (a.u.)
14,GGTCATATGTTTCTAATTGAAATGCAAAATCGGGAAAATGCGGAGTCACCTAGTGCAG,3250 fluorescence intensity (a.u.)
15,GTTTAATTAACCTCCAAATCCCATCATTCTTGATTAACTACGGAGTCACCTAGTGCAG,19500 fluorescence intensity (a.u.)
16,AGCAAATCATCTCAATTGCTTATAGTTTTCTCGATGATTACGGAGTCACCTAGTGCAG,5710 fluorescence intensity (a.u.)
17,GCTAAACTTGTGCTAAATGGATTGAGATTCTCTGCAAGTGCGGAGTCACCTAGTGCAG,15400 fluorescence intensity (a.u.)
18,TTAATTTGTTATGATGCACATTTGATCCATTTATAGTTTTCGGAGTCACCTAGTGCAG,9820 fluorescence intensity (a.u.)
19,ATAAAGTGTCCATCAATTTATTGTCAGCGGCGATCTCATGCGGAGTCACCTAGTGCAG,4910 fluorescence intensity (a.u.)
20,ACACTTTCAATTACAGGATTTTAAATCTACGTTATACCGACGGAGTCACCTAGTGCAG,25100 fluorescence intensity (a.u.)
21,ATGACTTAGATTGTGAAACGGATGAAGTAATATTTTGCCTCGGAGTCACCTAGTGCAG,14000 fluorescence intensity (a.u.)
22,GCACTTAATCAACATCGTGATAAATGGAACACCTCCAGTCCGGAGTCACCTAGTGCAG,10100 fluorescence intensity (a.u.)
23,CATCTAATTGCCACATAAGCGCCACGTCAACGACACGTTGCGGAGTCACCTAGTGCAG,30700 fluorescence intensity (a.u.)
24,GCATGTATCTAATTAACCCTATCTATTTTCATGTATGACACGGAGTCACCTAGTGCAG,8100 fluorescence intensity (a.u.)
25,GTGAAGAACAATAATTGGCAATCTTTGTACTCTTTTGTCACGGAGTCACCTAGTGCAG,39100 fluorescence intensity (a.u.)
26,ATTTACTAATCAAGAGGACCAATAATTCCCTTGACTAGCTCGGAGTCACCTAGTGCAG,11500 fluorescence intensity (a.u.)
27,CAAAGCCAATTATTATAGAGATTGTACAATGAATGACTACCGGAGTCACCTAGTGCAG,9230 fluorescence intensity (a.u.)

row,Sequence,binding signal
1,CATTAATAATTGGTTCCATTTATCATACACACATAACGTCCGGAGTCACCTAGTGCAG,26500 fluorescence intensity (a.u.)
2,TAATATAATAGATTTTCAGTCAGTTAGTGCTATTTGGAGACGGAGTCACCTAGTGCAG,4800 fluorescence intensity (a.u.)
3,CATCATGAAATCATTGTAACTGATTGATCTGTAATTCACTCGGAGTCACCTAGTGCAG,21300 fluorescence intensity (a.u.)
4,CATTTATATTGATGTAAGATTCATTAACATGTGAGAAATGCGGAGTCACCTAGTGCAG,6760 fluorescence intensity (a.u.)
5,TGATTAGGGATAATTACTACTCCCATTGCTTGCTTTCCTCCGGAGTCACCTAGTGCAG,4290 fluorescence intensity (a.u.)
6,ACTCATGCTTACTTGATTGATAGTGGAAGAACCTTTTCTTCGGAGTCACCTAGTGCAG,28200 fluorescence intensity (a.u.)
7,GAGCAATCTATTATTCAGATTACTTTAAGCTGGTAAAGCGCGGAGTCACCTAGTGCAG,5940 fluorescence intensity (a.u.)
8,ACAACCAATCACACTAAATCATGCGCATTGAACTAGAGCCCGGAGTCACCTAGTGCAG,33900 fluorescence intensity (a.u.)
9,TAACTAATCATAACTGCAAGCACATGTGTCTAGTCTAGAACGGAGTCACCTAGTGCAG,8390 fluorescence intensity (a.u.)
10,ACACGCCGTGAATACGCCGTGATTGGGCACTGTTCGGTGTCGGAGTCACCTAGTGCAG,5030 fluorescence intensity (a.u.)
11,GGGAATACTAAATGAATTGATCAAAATCAGGATTGTTCATCGGAGTCACCTAGTGCAG,4340 fluorescence intensity (a.u.)
12,TTTATAATAATTGTAAGTTGTCAGTCCACGTAATTGGAGCCGGAGTCACCTAGTGCAG,13700 fluorescence intensity (a.u.)
13,TTTCCTGTTTACGAATATGATTAATTTTGGTGTTCCGTCGCGGAGTCACCTAGTGCAG,15300 fluorescence intensity (a.u.)
14,CCAACCAGCTGATTTGCAACTTGCCAGTCTGTAATGCATACGGAGTCACCTAGTGCAG,3740 fluorescence intensity (a.u.)
15,CATCAATAATGAAGAAGAAACAAACTAAATACTACCAATCCGGAGTCACCTAGTGCAG,3670 fluorescence intensity (a.u.)
16,CTTTTGTTTCTTTTGATTGCCCGTTCTGAAAGTGATAAACCGGAGTCACCTAGTGCAG,8390 fluorescence intensity (a.u.)
17,ATCAATAATTGAACATATTTTCATAATAAATTTGTCTTGGCGGAGTCACCTAGTGCAG,42100 fluorescence intensity (a.u.)
18,TAAGCTTAATCAATCCATCATTGGCAAATATTTACTATAGCGGAGTCACCTAGTGCAG,8680 fluorescence intensity (a.u.)
19,ATAAATTATTGTGTTACACTGATGTGCCATTCTATGAGTGCGGAGTCACCTAGTGCAG,23600 fluorescence intensity (a.u.)
20,AGAGATGATAGAAATTGATAGGGAGTTTAGTTAGAGATTACGGAGTCACCTAGTGCAG,26400 fluorescence intensity (a.u.)
21,TCAGTCAATTTATAGTTGTTGTTGAGAGGATTTAGAATAGCGGAGTCACCTAGTGCAG,5170 fluorescence intensity (a.u.)
22,AGTCAACAGATAATTACTTAGTAGGACAAAACCAATATCGCGGAGTCACCTAGTGCAG,5370 fluorescence intensity (a.u.)
23,TTAATTAAACACATCCACTATAAAACTCATAGGCAACAATCGGAGTCACCTAGTGCAG,3970 fluorescence intensity (a.u.)
24,AGTCTAATTCCTCCATGATTTCACAATGTGGTGCTACAGTCGGAGTCACCTAGTGCAG,9510 fluorescence intensity (a.u.)
25,ACTAGGACTAGTAGATTAATTAATGTTTCTTTCTCTATTTCGGAGTCACCTAGTGCAG,3860 fluorescence intensity (a.u.)
26,TGATGAATTAGAAATTAATTATTATTTTAAAGATTATCTTCGGAGTCACCTAGTGCAG,10000 fluorescence intensity (a.u.)
27,TTGATTTTACAAAATCTGTTATTACTGCTGATATCAAGTCCGGAGTCACCTAGTGCAG,4070 fluorescence intensity (a.u.)
